Measurements from ChEMBL document CHEMBL4888484, “Replenishing the malaria drug discovery pipeline: Screening and hit evaluation of the MMV Hit Generation Library 1 (HGL1) against asexual blood stage Plasmodium falciparum ,using a nano luciferase reporter read-out” (2022).
About 540 (0.36%) of roughly 150,000 compounds showed an effect of 50% or more. The list shows a part of the results.

The compounds below were run on Plasmodium falciparum (assay: Primary screen in NF54 nanoGlo assay, in single point, at 2uM, 72h; a lower Z score goes with more inhibition). Conditions: timepoint 72 hour.
Format: functional, Erythrocyte

Structure (SMILES) | % Inhibition | Z score
O=C1NCC2(CCN(c3ncnc4[nH]ccc34)CC2)Oc2ccccc21 | -1% | 0.21
CC[C@H](O)c1cc2n(n1)CCN(c1ncc(F)c(N3CCOCC3)n1)C2 | 6% | -0.87
O=C(NCc1ccco1)c1cccnc1 | -8% | 1.02
O=C1CC[C@@H](c2nc(-c3ccc(F)cc3F)no2)c2ccccc21 | 15% | -1.81
Cc1nc(NC(=O)c2cnn3c2OCCC3)sc1C | -7% | 1.15
Cc1cccc(NC(=O)CN(C)c2ccc(C#N)nn2)c1C | -9% | 1.51
COc1cccc(N2CCN(c3nc(-c4ccccc4F)no3)CC2)c1 | -6% | 0.95
N=C(NC1CCCCC1)c1ccc(Cl)cc1 | 10% | -1.28
Cn1ccnc1C1(O)CN(c2nc3cc(Cl)cc(Cl)c3o2)C1 | 11% | -1.66
COc1ccccc1NS(=O)(=O)c1cc(-c2csc(C)n2)ccc1OC | -2% | 0.32
Cc1c(C2(c3c(C)n(C)n(-c4ccccc4)c3=O)C(=O)Nc3ccc(F)cc32)c(=O)n(-c2ccccc2)n1C | 7% | -1.33
Cc1cc(=O)[nH]c(=O)n1Cc1cccs1 | 8% | -0.94
O=C(NCc1nsc2ccccc12)c1ccoc1C1CC1 | -4% | 0.45
CCNC(=O)[C@H]1CCCN(c2nc3ncn(CC(=O)NCc4ccco4)c(=O)c3s2)C1 | -18% | 1.62
CC(C)c1noc(NC2CCCC2CNC(=O)OC(C)(C)C)n1 (centres undefined) | -7% | 0.89
CC1CC1N1CC(NC(=O)N2CCCC2C2CCCO2)CC1=O (centres undefined) | -8% | 1.01
COc1ccc(CCN2C[C@H](O)C(C)(C)COCCC[C@H]3CN(Cc4csnn4)CC[C@H]3CC2=O)cc1 | -8% | 1.2
Cc1nocc1S(=O)(=O)NCCc1ccns1 | -17% | 1.84
O=C(NCc1cccnc1)[C@H]1CC(=O)N(Cc2cc(C(F)(F)F)cc(C(F)(F)F)c2)C1 | -14% | 2.25
Cc1cnc(C)c(N2CCC(c3nc(-c4ccccn4)no3)CC2)n1 | -12% | 1.22
O=C(Nc1nc2ccc(S(=O)(=O)N3CCCCC3)cc2s1)[C@@H]1CCCO1 | -9% | 1.63

Structure (SMILES) | % Inhibition | Z score
CCOC(C)(C)c1nc(Cc2cccc(Cl)c2)n[nH]1 | -10% | 2.01
CN(C)S(=O)(=O)c1ccc(COc2ccccc2C(=O)Nc2cc(F)ccc2F)o1 | -8% | 1.11
c1ccc2oc(-c3nnc(N4CCOCC4)[nH]3)cc2c1 | 10% | -1.28
CC(C)c1ccc([C@@H](O)Cn2nc(N3CCCC3)sc2=S)cc1 | 8% | -0.94
CN(C)c1cccc(Oc2nnnn2[C@H]2CO[C@H]3[C@@H]2OC[C@@H]3NC(=O)c2ccccc2)c1 | -2% | 0.2
Cc1ccc(=O)n(CC(=O)N2CCN(c3ccc(F)cc3)CC2)n1 | 23% | -2.99
Cc1cnc(C(=O)N2CCc3[nH]c(-c4cn[nH]c4)nc3C2)cn1 | -1% | 0.18
Cn1nccc1COc1ccc(N)cc1F | 3% | -0.47
CCOC(=O)N1CCN(C(=O)c2snc(-c3ccccn3)c2NC(=O)CC)CC1 | -6% | 0.63
C[C@](O)(CNS(=O)(=O)c1cccs1)c1ccc2c(c1)OCO2 | -3% | 0.56
Cc1nccn1CCCN(C)[C@@H](C)c1nc2ccccc2c(=O)[nH]1 | -13% | 2.45
CCOc1cc(C2Nc3ccc(C)cc3C(OC(C)=O)C2(C)C)ccc1OCc1ccccc1Cl (centres undefined) | 6% | -1.18
CC(C)=CCN1CC2(CCN(C(=O)c3ncccc3O)CC2)CC1=O | -4% | 0.45
CCCNC(=O)[C@H]1CCc2ncc(-c3ccc(OC)cc3)n2C1 | -9% | 1.72
CO[C@H]1CCCN(S(=O)(=O)c2ccc3[nH]c(=O)c(C)cc3c2)C1 | 20% | -2.31
CCS(=O)(=O)N1C[C@@H]2CN(C(=O)c3cc(C)on3)C[C@]2(c2nc(C)no2)C1 | -6% | 0.83
O=C(NCc1cnn(CC2CCC2)c1)[C@H]1CCO[C@@H]1c1cccnc1 | -4% | 0.57
Clc1ccc(OCc2ccccc2Cl)c(CNc2ccc(Oc3ccccc3)cc2)c1 | 35% | -3.97
O=C(CN(C[C@H]1CCOC1)C1CC1)Nc1nc2ccccc2s1 | -8% | 1.28
O=C(O)c1cccc2[nH]c(C3CC3)nc12 | -6% | 0.74
CCn1ncnc1CN[C@H]1CC=CC[C@@H]1C(N)=O | -3% | 0.34
